Measurements as given in PMC10530723, “The Conserved Chromatin Remodeler SMARCAD1 Interacts with TFIIIC and Architectural Proteins in Human and Mouse” (Genes, 2023).
These are yes or no findings as the source states them, for the method shown. In cells and extracts the contact can be indirect. Some binding calls cover weakened binding; strength is not graded here.

By UniProt entry, the sequences of proteins in these tests, tags left out.
UniProt Q9UQE7: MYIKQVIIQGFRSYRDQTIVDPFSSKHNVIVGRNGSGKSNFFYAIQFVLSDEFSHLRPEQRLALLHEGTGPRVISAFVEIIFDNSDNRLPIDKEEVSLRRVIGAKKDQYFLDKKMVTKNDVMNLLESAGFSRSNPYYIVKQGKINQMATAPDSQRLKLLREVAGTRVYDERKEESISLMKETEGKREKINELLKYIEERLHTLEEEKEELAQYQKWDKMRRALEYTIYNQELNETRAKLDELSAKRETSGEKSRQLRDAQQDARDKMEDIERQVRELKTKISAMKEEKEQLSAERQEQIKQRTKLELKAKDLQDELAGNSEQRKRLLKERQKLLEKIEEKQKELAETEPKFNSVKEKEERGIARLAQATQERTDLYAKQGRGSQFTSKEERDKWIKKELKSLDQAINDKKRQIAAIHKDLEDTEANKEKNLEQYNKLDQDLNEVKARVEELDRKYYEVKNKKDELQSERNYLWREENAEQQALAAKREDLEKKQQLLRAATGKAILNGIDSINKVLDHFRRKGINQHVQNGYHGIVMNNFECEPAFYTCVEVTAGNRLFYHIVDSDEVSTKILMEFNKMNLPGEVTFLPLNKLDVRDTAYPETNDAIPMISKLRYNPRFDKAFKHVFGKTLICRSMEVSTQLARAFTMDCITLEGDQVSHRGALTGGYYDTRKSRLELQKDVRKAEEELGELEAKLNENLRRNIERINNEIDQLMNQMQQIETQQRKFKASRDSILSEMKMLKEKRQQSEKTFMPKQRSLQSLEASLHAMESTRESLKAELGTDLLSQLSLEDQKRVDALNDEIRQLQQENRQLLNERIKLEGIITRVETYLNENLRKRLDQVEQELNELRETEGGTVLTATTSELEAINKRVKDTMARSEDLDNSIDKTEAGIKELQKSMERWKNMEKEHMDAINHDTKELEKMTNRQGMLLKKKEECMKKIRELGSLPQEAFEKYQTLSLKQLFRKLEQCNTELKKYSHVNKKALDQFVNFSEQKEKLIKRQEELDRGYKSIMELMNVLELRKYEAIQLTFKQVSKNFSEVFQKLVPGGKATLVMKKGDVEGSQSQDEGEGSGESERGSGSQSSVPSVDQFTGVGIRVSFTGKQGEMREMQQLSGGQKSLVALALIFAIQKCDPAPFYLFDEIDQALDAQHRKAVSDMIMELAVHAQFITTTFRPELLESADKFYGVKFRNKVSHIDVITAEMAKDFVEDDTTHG
UniProt Q13263: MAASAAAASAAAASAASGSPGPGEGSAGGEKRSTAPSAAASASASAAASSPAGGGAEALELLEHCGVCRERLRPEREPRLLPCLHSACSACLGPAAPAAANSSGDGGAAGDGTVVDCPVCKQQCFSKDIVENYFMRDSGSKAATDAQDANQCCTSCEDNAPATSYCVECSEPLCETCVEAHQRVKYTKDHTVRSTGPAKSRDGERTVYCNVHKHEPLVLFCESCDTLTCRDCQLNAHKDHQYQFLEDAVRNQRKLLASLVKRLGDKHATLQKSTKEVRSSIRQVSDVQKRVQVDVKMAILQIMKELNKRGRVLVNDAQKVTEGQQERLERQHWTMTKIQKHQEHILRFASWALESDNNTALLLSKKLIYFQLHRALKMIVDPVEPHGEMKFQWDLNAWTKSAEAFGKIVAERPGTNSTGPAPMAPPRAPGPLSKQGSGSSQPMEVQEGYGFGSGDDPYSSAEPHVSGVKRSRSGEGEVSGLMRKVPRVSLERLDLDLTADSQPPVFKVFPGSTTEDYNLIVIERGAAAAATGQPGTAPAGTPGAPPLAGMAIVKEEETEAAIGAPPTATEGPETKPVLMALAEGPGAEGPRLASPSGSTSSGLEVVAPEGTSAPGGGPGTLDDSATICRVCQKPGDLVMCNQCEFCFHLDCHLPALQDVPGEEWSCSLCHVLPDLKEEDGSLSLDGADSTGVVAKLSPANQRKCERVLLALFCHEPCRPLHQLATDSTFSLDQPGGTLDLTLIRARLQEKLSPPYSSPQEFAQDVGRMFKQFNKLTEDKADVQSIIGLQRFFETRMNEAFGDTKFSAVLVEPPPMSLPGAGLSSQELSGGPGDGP
UniProt P17844: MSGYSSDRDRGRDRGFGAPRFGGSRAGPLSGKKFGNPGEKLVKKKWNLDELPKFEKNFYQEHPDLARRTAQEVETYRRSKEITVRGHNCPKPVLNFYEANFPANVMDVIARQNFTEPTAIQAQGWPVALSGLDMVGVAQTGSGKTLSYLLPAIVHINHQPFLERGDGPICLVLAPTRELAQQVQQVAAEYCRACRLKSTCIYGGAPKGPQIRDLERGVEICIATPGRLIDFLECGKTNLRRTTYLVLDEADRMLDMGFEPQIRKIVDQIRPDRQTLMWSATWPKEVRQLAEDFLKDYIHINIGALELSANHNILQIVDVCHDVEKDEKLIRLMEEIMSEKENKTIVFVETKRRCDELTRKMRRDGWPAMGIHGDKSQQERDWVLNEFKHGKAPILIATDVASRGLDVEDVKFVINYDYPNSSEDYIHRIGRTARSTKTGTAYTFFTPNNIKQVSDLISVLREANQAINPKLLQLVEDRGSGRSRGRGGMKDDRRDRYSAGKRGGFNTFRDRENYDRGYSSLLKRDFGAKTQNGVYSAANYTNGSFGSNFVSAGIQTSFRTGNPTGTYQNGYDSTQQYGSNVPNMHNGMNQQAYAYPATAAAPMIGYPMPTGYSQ

T1: SMARCAD1 (endogenous, HeLa) (human (endogenous in HeLa)) (UniProt Q9H4L7)
T1 sequence: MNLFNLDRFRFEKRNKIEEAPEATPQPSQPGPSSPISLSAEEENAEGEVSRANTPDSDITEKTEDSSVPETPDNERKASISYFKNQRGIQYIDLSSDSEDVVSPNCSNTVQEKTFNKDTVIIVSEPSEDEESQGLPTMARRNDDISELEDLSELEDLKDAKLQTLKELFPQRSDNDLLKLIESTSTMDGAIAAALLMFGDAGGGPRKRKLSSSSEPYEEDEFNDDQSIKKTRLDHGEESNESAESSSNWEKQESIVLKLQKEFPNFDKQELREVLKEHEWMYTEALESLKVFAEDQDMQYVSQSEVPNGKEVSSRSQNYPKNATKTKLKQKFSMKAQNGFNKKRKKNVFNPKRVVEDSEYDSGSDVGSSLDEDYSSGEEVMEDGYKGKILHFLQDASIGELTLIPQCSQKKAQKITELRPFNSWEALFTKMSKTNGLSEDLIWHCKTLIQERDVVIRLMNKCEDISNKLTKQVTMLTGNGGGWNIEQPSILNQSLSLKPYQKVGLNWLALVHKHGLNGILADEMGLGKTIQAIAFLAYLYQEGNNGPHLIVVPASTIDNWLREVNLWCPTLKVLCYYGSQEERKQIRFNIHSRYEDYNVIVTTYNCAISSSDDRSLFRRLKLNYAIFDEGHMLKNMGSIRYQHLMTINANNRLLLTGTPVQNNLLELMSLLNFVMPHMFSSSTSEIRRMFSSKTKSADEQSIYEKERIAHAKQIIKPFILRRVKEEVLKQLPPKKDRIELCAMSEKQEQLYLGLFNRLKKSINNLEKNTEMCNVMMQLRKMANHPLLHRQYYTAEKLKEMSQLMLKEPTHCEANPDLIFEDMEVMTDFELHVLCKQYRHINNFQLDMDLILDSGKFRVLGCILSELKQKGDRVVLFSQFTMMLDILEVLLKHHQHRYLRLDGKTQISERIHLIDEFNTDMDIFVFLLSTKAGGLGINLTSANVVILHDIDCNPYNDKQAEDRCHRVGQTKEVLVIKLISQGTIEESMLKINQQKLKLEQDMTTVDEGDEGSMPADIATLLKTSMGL

T2: TFIIIC90 (endogenous, HeLa) (human (endogenous in HeLa)) (UniProt Q9UKN8)
T2 sequence: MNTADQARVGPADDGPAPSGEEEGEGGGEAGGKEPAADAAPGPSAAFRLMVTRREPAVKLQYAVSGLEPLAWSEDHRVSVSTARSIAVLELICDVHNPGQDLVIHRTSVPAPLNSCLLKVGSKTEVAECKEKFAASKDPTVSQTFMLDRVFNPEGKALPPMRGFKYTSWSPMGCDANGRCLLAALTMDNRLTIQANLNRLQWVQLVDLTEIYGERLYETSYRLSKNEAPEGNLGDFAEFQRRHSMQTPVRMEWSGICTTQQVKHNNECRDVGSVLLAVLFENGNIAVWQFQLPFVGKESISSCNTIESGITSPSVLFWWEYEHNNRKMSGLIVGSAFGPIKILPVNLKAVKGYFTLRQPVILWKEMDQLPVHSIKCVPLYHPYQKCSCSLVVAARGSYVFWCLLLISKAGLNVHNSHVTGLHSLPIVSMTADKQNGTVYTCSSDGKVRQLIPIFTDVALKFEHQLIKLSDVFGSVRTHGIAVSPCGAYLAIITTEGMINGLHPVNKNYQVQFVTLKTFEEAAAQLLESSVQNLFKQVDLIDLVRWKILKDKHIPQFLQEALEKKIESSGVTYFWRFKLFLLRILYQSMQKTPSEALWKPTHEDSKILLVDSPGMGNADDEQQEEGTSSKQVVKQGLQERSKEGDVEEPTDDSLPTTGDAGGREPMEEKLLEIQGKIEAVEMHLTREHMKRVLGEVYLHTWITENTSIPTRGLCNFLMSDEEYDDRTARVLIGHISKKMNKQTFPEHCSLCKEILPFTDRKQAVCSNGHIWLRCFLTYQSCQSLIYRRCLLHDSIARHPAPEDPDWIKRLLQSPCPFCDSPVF


Columns and labels:
[1] = biological target: T1, SMARCAD1 (endogenous, HeLa) (human (endogenous in HeLa)); experiment: co-IP; endogenous proteins from HeLa nuclear extract (150 ug protein, 3 ug antibody to SMARCAD1, TFIIIC63 or TFIIIC90, Protein G Dynabeads); benzonase and ethidium bromide present throughout; washes in 20 mM HEPES pH 7.6, 100 mM KCl, 0.05% Triton X-100, last wash with additional 50 mM NaCl; Western blot
[2] = biological target: T2, TFIIIC90 (endogenous, HeLa) (human (endogenous in HeLa)); experiment: as above

Molecule	binding [1]	binding [2]
SMC3 (endogenous, HeLa) (from UniProt Q9UQE7 1-1217)	binds	binds
KAP1 (endogenous, HeLa) (from UniProt Q13263 1-835)	–	binds

The remaining lines, values ahead:

binding [1]	binding [2]	Molecule
binds	binds	DDX5 (endogenous, HeLa) (from UniProt P17844 1-614)
binds	binds	SMC1A (endogenous, HeLa) (protein, UniProt Q14683 1-1233) MGFLKLIEIENFKSYKGRQIIGPFQRFTAIIGPNGSGKSNLMDAISFVLGEKTSNLRVKTLRDLIHGAPVGKPAANRAFVSMVYSEEGAEDRTFARVIVGGSSEYKINNKVVQLHEYSEELEKLGILIKARNFLVFQGAVESIAMKNPKERTALFEEISRSGELAQEYDKRKKEMVKAEEDTQFNYHRKKNIAAERKEAKQEKEEADRYQRLKDEVVRAQVQLQLFKLYHNEVEIEKLNKELASKNKEIEKDKKRMDKVEDELKEKKKELGKMMREQQQIEKEIKEKDSELNQKRPQYIKAKENTSHKIKKLEAAKKSLQNAQKHYKKRKGDMDELEKEMLSVEKARQEFEERMEEESQSQGRDLTLEENQVKKYHRLKEEASKRAATLAQELEKFNRDQKADQDRLDLEERKKVETEAKIKQKLREIEENQKRIEKLEEYITTSKQSLEEQKKLEGELTEEVEMAKRRIDEINKELNQVMEQLGDARIDRQESSRQQRKAEIMESIKRLYPGSVYGRLIDLCQPTQKKYQIAVTKVLGKNMDAIIVDSEKTGRDCIQYIKEQRGEPETFLPLDYLEVKPTDEKLRELKGAKLVIDVIRYEPPHIKKALQYACGNALVCDNVEDARRIAFGGHQRHKTVALDGTLFQKSGVISGGASDLKAKARRWDEKAVDKLKEKKERLTEELKEQMKAKRKEAELRQVQSQAHGLQMRLKYSQSDLEQTKTRHLALNLQEKSKLESELANFGPRINDIKRIIQSREREMKDLKEKMNQVEDEVFEEFCREIGVRNIREFEEEKVKRQNEIAKKRLEFENQKTRLGIQLDFEKNQLKEDQDKVHMWEQTVKKDENEIEKLKKEEQRHMKIIDETMAQLQDLKNQHLAKKSEVNDKNHEMEEIRKKLGGANKEMTHLQKEVTAIETKLEQKRSDRHNLLQACKMQDIKLPLSKGTMDDISQEEGSSQGEDSVSGSQRISSIYAREALIEIDYGDLCEDLKDAQAEEEIKQEMNTLQQKLNEQQSVLQRIAAPNMKAMEKLESVRDKFQETSDEFEAARKRAKKAKQAFEQIKKERFDRFNACFESVATNIDEIYKALSRNSSAQAFLGPENPEEPYLDGINYNCVAPGKRFRPMDNLSGGEKTVAALALLFAIHSYKPAPFFVLDEIDAALDNTNIGKVANYIKEQSTCNFQAIVISLKEEFYTKAESLIGVYPEQGDCVISKVLTFDLTKYPDANPNPNEQ
binds	–	TFIIIC63 (endogenous, HeLa) (protein, UniProt Q9Y5Q8 1-519) MAAEAADLGLGAAVPVELRRERRMVCVEYPGVVRDVAKMLPTLGGEEGVSRIYADPTKRLELYFRPKDPYCHPVCANRFSTSSLLLRIRKRTRRQKGVLGTEAHSEVTFDMEILGIISTIYKFQGMSDFQYLAVHTEAGGKHTSMYDKVLMLRPEKEAFFHQELPLYIPPPIFSRLDAPVDYFYRPETQHREGYNNPPISGENLIGLSRARRPHNAIFVNFEDEEVPKQPLEAAAQTWRRVCTNPVDRKVEEELRKLFDIRPIWSRNAVKANISVHPDKLKVLLPFIAYYMITGPWRSLWIRFGYDPRKNPDAKIYQVLDFRIRCGMKHGYAPSDLPVKAKRSTYNYSLPITVKKTSSQLVTMHDLKQGLGPSGTSGARKPASSKYKLKDSVYIFREGALPPYRQMFYQLCDLNVEELQKIIHRNDGAENSCTERDGWCLPKTSDELRDTMSLMIRQTIRSKRPALFSSSAKADGGKEQLTYESGEDEEDEEEEEEEEEDFKPSDGSENEMETEILDYV
binds	–	TFIIIC90 (endogenous, HeLa) (protein, UniProt Q9UKN8 1-822) MNTADQARVGPADDGPAPSGEEEGEGGGEAGGKEPAADAAPGPSAAFRLMVTRREPAVKLQYAVSGLEPLAWSEDHRVSVSTARSIAVLELICDVHNPGQDLVIHRTSVPAPLNSCLLKVGSKTEVAECKEKFAASKDPTVSQTFMLDRVFNPEGKALPPMRGFKYTSWSPMGCDANGRCLLAALTMDNRLTIQANLNRLQWVQLVDLTEIYGERLYETSYRLSKNEAPEGNLGDFAEFQRRHSMQTPVRMEWSGICTTQQVKHNNECRDVGSVLLAVLFENGNIAVWQFQLPFVGKESISSCNTIESGITSPSVLFWWEYEHNNRKMSGLIVGSAFGPIKILPVNLKAVKGYFTLRQPVILWKEMDQLPVHSIKCVPLYHPYQKCSCSLVVAARGSYVFWCLLLISKAGLNVHNSHVTGLHSLPIVSMTADKQNGTVYTCSSDGKVRQLIPIFTDVALKFEHQLIKLSDVFGSVRTHGIAVSPCGAYLAIITTEGMINGLHPVNKNYQVQFVTLKTFEEAAAQLLESSVQNLFKQVDLIDLVRWKILKDKHIPQFLQEALEKKIESSGVTYFWRFKLFLLRILYQSMQKTPSEALWKPTHEDSKILLVDSPGMGNADDEQQEEGTSSKQVVKQGLQERSKEGDVEEPTDDSLPTTGDAGGREPMEEKLLEIQGKIEAVEMHLTREHMKRVLGEVYLHTWITENTSIPTRGLCNFLMSDEEYDDRTARVLIGHISKKMNKQTFPEHCSLCKEILPFTDRKQAVCSNGHIWLRCFLTYQSCQSLIYRRCLLHDSIARHPAPEDPDWIKRLLQSPCPFCDSPVF
